In the supplement of paper PMC3722116:
Growth of fresh clinical P. falciparum isolates by hypoxanthine uptake over 42 h; for most isolates 1.6-1,647 nM mefloquine, 0.044-87 nM artesunate, 10-10,256 nM chloroquine, 2.4-236 nM lumefantrine. EC50, lower = more sensitive; slope from the same fit, higher = steeper. No active / inactive call. Fits with a coefficient of variation above 100% are not listed here; 15-28% of fits exceed 15%. Isolates are numbered anew.

Experiments:
lumefantrine [1] = compound: T1, CCCCN(CCCC)CC(O)c1cc(Cl)cc2c1-c1ccc(Cl)cc1/C2=C/c1ccc(Cl)cc1 [lumefantrine]
Method: (§1)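 Hypoxanthine uptake by fresh isolates, duplicate serial dilutions, 24 h of drug plus 18 h after the label; sigmoid fit per isolate.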

chloroquine [2] = compound: T2, CCN(CC)CCCC(C)Nc1ccnc2cc(Cl)ccc12 [chloroquine]
Method: as §1

artesunate [3] = compound: T3, C[C@H]1[C@H](OC(=O)CCC(=O)O)O[C@@H]2O[C@@]3(C)CC[C@H]4[C@H](C)CC[C@@H]1[C@@]24OO3 [artesunate]
Method: as §1

mefloquine [4] = compound: T4, OC(c1cc(C(F)(F)F)nc2c(C(F)(F)F)cccc12)C1CCCCN1 [mefloquine]
Method: as §1

lumefantrine [5] = compound: T1, lumefantrine; test: slope of the dose-response curve (dimensionless); higher = steeper concentration-effect curve
Method: as §1

chloroquine [6] = compound: T2, chloroquine; test: as above
Method: as §1

artesunate [7] = compound: T3, artesunate; test: as above
Method: as §1

mefloquine [8] = compound: T4, mefloquine; test: as above
Method: as §1

Row | Test System | EC50 of parasite growth (lumefantrine [1]) [µg/mL] | EC50 of parasite growth (chloroquine [2]) [µg/mL] | EC50 of parasite growth (artesunate [3]) [µg/mL] | EC50 of parasite growth (mefloquine [4]) [µg/mL] | slope (lumefantrine [5]) | slope (chloroquine [6]) | slope (artesunate [7]) | slope (mefloquine [8])
1 | Plasmodium falciparum isolate 284 (pfmdr1 allele: 86N, 1042N, pfmdr1 copies: 1) | 0.0166 | 0.0252 | 0.000221 | 0.00824 | 4.32 | 2.04 | 3.92 | 1.62
2 | Plasmodium falciparum isolate 18 (pfmdr1 allele: 86N, 1042N, pfmdr1 copies: 1) | 0.0305 | 0.151 | 0.000293 | 0.0141 | 2.27 | 3.48 | 4.34 | 2.28
3 | Plasmodium falciparum isolate 265 (pfmdr1 allele: 86N, 1042N, pfmdr1 copies: 1) | 0.0509 | 0.176 | 0.00251 | 0.0634 | 2 | 9.97 | 10 | 2.18
4 | Plasmodium falciparum isolate 241 (pfmdr1 allele: 86N, 1042N, pfmdr1 copies: 2) | 0.0132 | 0.0595 | 0.000463 | 0.0221 | 1.29 | 3.63 | 1.71 | 2.18
5 | Plasmodium falciparum isolate 424 (pfmdr1 allele: 86N, 1042N, pfmdr1 copies: 1) | 0.0546 | 0.0962 | 0.00103 | 0.0416 | 4.01 | 3.79 | 10 | 2.53
6 | Plasmodium falciparum isolate 328 (pfmdr1 allele: 86N, 1042N, pfmdr1 copies: 1) | 0.0187 | 0.0574 | 0.00116 | 0.0207 | 2.59 | 3.93 | 7.74 | 3.31
7 | Plasmodium falciparum isolate 251 (pfmdr1 allele: 86N, 1042N, pfmdr1 copies: 2) | 0.0193 | 0.343 | 0.000897 | 0.0423 | 2.58 | 3.5 | 3.34 | 2.95
8 | Plasmodium falciparum isolate 210 (pfmdr1 allele: 86N, 1042N, pfmdr1 copies: 2) | 0.0137 | 0.195 | 0.000324 | 0.0116 | 3.82 | 4.14 | 2.82 | 1.5
9 | Plasmodium falciparum isolate 68 (pfmdr1 allele: 1042D, pfmdr1 copies: 1) | 0.00337 | 0.337 | 0.000488 | 0.00199 | 1.41 | 10 | 2.47 | 1.18
10 | Plasmodium falciparum isolate 198 (pfmdr1 allele: 86N, 1042N, pfmdr1 copies: 1) | 0.04 | 0.0664 | 0.000782 | 0.0272 | 5.17 | 3.99 | 10 | 2.29
11 | Plasmodium falciparum isolate 183 (pfmdr1 allele: 86N, 1042N, pfmdr1 copies: 2) | 0.0335 | 0.101 | 0.0033 | 0.0515 | 2.13 | 3.05 | 6.67 | 2.95
12 | Plasmodium falciparum isolate 143 (pfmdr1 allele: 86N, 1042N, pfmdr1 copies: 3) | 0.0166 | 0.211 | 0.00105 | 0.0348 | 3.1 | 5.87 | 5.31 | 3.37
13 | Plasmodium falciparum isolate 194 (pfmdr1 allele: 86N, 1042N, pfmdr1 copies: 2) | 0.0343 | 0.119 | 0.00155 | 0.0783 | 2.11 | 6.69 | 6.92 | 3.44
14 | Plasmodium falciparum isolate 61 (pfmdr1 allele: 86Y, pfmdr1 copies: 1) | 0.012 | 0.188 | 0.000293 | 0.00738 | 5.46 | 9.99 | 4.22 | 2.44
15 | Plasmodium falciparum isolate 105 (pfmdr1 allele: 86N, 1042N, pfmdr1 copies: 1) | 0.00974 | 0.136 | 0.00108 | 0.0326 | 3.01 | 5.3 | 9.48 | 4.12
16 | Plasmodium falciparum isolate 414 (pfmdr1 allele: 86N, 1042N, pfmdr1 copies: 1) | 0.0359 | 0.34 | 0.000827 | 0.0338 | 1.9 | 5.64 | 4.9 | 2.18
17 | Plasmodium falciparum isolate 315 (pfmdr1 allele: 86N, 1042N, pfmdr1 copies: 1) | 0.02 | 0.0923 | 0.00259 | 0.0367 | 2.67 | 4.05 | 8.11 | 3.4
18 | Plasmodium falciparum isolate 473 (pfmdr1 allele: 86N, 1042N, pfmdr1 copies: 2) | 0.0177 | 0.0448 | 0.000832 | 0.0371 | 2.99 | 2.49 | 5.55 | 3.81
19 | Plasmodium falciparum isolate 352 (pfmdr1 allele: 86N, 1042N, pfmdr1 copies: 2) | 0.0132 | 0.0636 | 0.0013 | 0.0261 | 1.07 | 3.16 | 7.16 | 1.67
20 | Plasmodium falciparum isolate 208 (pfmdr1 allele: 86N, 1042N, pfmdr1 copies: 1) | 0.00765 | 0.0726 | 0.0002 | 0.00417 | 2.6 | 4.04 | 3.53 | 1.78
21 | Plasmodium falciparum isolate 205 (pfmdr1 allele: 86N, 1042N, pfmdr1 copies: 1) | 0.0507 | 0.183 | 0.000677 | 0.0467 | 1.96 | 9.94 | 6.63 | 3.15
22 | Plasmodium falciparum isolate 370 (pfmdr1 allele: 86N, 1042N, pfmdr1 copies: 1) | 0.00981 | 0.186 | 0.000211 | 0.0145 | 1.73 | 4.39 | 3.14 | 1.71
23 | Plasmodium falciparum isolate 362 (pfmdr1 allele: 86N, 1042N, pfmdr1 copies: 1) | 0.0509 | 0.174 | 0.000987 | 0.0498 | 2.76 | 5.85 | 9.99 | 3.92
24 | Plasmodium falciparum isolate 29 (pfmdr1 allele: 86N, 1042N, pfmdr1 copies: 1) | 0.00955 | 0.173 | 0.000308 | 0.0244 | 1.64 | 1.54 | 5.69 | 1.72
25 | Plasmodium falciparum isolate 487 (pfmdr1 allele: 86N, 1042N, pfmdr1 copies: 2) | 0.00613 | 0.149 | 0.0004 | 0.017 | 1.85 | 3.28 | 3.75 | 1.86
26 | Plasmodium falciparum isolate 91 (pfmdr1 allele: 86N, 1042N, pfmdr1 copies: 2) | 0.0405 | 0.0511 | 0.000482 | 0.0258 | 7.9 | 1.86 | 10 | 3.16
